# Measured values as given in PubChem BioAssay AID1479 (National Center for Advancing Translational Sciences (NCATS), 2009).
# In all, about 280,000 compounds went through this assay and about 820 (0.29%) were called active. This list was built around the results that the source calls inconclusive (neither active nor inactive); the mix of calls is not that of the screen. Calls come from the whole dose curve; as a rule, active = well fitted curve in either direction with a large enough effect; inconclusive = small, poorly fitted or top-dose-only effect; inactive = flat fitted curve, though single readings scatter. No potency is given beside an inconclusive call; the fits are too rough. A structure can be active in one record and inactive in another.
# Experiment: Total Fluorescence Counterscreen for Inhibitors of the Interaction of Thyroid Hormone Receptor and Steroid Receptor Coregulator 2
# Details: TRb/SRC2 Texas Red total fluorescence interference; series mostly up to 106 µM
# Outline: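 Flags fluorescent or light-absorbing compounds by total fluorescence, S + 2P, at 555 nm excitation and 632 nm emission. Mixture: 20 nM Texas Red SRC2 peptide, 0.6 uM human TRb LBD, 1 uM T3, 5% DMSO; compound exposure 5 h at ambient temperature.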
# Potency is the fitted concentration of half-maximal effect; tags give direction and shape of the fitted curve or compound fluorescence and quenching.
row,SMILES,Potency
1,CC(=O)c1ccc(N2CCN(C(=O)Nc3ccc(C(C)C)cc3)CC2)cc1,active: 0.0316 µM [quencher]
2,COc1ccc(NS(=O)(=O)c2ccc3[nH]c4c(c3c2)CCCCC4)cc1,"inconclusive [falling, partial curve, poor fit]"
3,Cc1cccc(C(=O)NC2=NC(c3ccc(Cl)cc3)CC(=O)N2)c1 (stereo not drawn),"inconclusive [quencher, full curve]"
4,COc1ccc(NC(=O)CN2CCC(C)CC2)c([N+](=O)[O-])c1,inactive
5,CCNC(=O)c1c(NC(=O)c2nc(S(=O)(=O)CC)ncc2Cl)sc2c1CCCC2,inconclusive
6,CS(=O)(=O)Nc1nnc(C2CCCC2)s1,inactive
7,O=C(Cn1cnc2c(nc3n2CCCCC3)c1=O)Nc1ccc(F)c(Cl)c1,active: 17.8 µM [quencher]
8,COc1ccc(CNC(=O)Cc2c(C)c3c(cc(C)c4c(C)c(C)oc43)oc2=O)cc1OC,inactive
9,CCOCCCNC(=O)c1ccc(-n2c(-c3ccccc3)cc3c2CCCCC3)cc1,"inconclusive [quencher, full curve]"
10,C/C(CCC1CC(C)(C)OC1=O)=N\NC(N)=S (stereo not drawn),inactive
11,CCOC(=O)c1c(NC(C)=O)c2c3c(sc2n1Cc1nc(-c2ccccc2Cl)oc1C)CCCC3,active: 17.8 µM [quencher]
12,Cc1ccc(NC(=O)CSc2nccn2C2CCCC2)cc1Cl,"inconclusive [falling, full curve, poor fit]"
13,N#C/C(=C\c1ccc(-c2cccc(Cl)c2)o1)C(=O)Nc1cccc(C(F)(F)F)c1,active: 0.0891 µM [quencher]
14,COc1ccc(NC(=O)CC(C)S(=O)(=O)c2cc3c(cc2C)NC(=O)CO3)cc1OC (stereo not drawn),"inconclusive [quencher, full curve]"
15,Nc1c(N=Nc2ccc(S(=O)(=O)CCOS(=O)(=O)O)cc2)c(S(=O)(=O)O)cc2cc(S(=O)(=O)O)c(N=Nc3ccc(S(=O)(=O)CCOS(=O)(=O)O)cc3)c(O)c12,active: 44.7 µM [quencher]
16,CCSc1nc2ccccc2c(OCc2cc(C(=O)OC)ccc2OC)c1C(=O)OC,"inconclusive [quencher, partial curve]"
17,O=C(/C(=C/c1cccc(Cl)c1)c1nc2ccccc2[nH]1)c1ccccc1,"inconclusive [falling, partial curve, poor fit]"
18,N=C1CCC(=N)c2c1c(O)c1ccccc1c2O,active: 44.7 µM [fluorescent]
19,O=C(CC(=O)N/N=C/c1ccccc1O)NCc1cccnc1,"inconclusive [quencher, full curve]"
20,COc1cc2nc(NCCc3ccc(Cl)cc3)n3nc(-c4ccccc4)nc3c2cc1OC,"inconclusive [quencher, full curve]"
21,CCCCNC(=O)c1ccc(-c2nc(CN3CCc4ccccc43)c(C)o2)cc1,"inconclusive [quencher, full curve]"
22,Cc1cccc(COc2ccc(-c3cc(C(F)(F)F)n4nc(C)cc4n3)cc2)c1,"inconclusive [falling, full curve, poor fit]"

row,SMILES,Potency
1,Cc1ccc(CNC(=O)CCN2C(=O)C(C)Oc3ccc(C)cc32)cc1 (stereo not drawn),active: 35.5 µM [quencher]
2,COc1ccc(N2CCN(C(=O)c3cc4c(s3)-c3c(C)cccc3OC4)CC2)cc1,"inconclusive [falling, full curve, poor fit]"
3,COc1cccc(NC(=O)OCCN2CCN(Cc3ccccc3)CCC2=O)c1,"inconclusive [falling, full curve, poor fit]"
4,COC(=O)c1ccc(NC(=O)C(c2ccccc2)N2Cc3ccccc3C2=O)cc1 (stereo not drawn),"inconclusive [quencher, full curve]"
5,COc1ccccc1CSc1nc2n(n1)C(c1ccccc1)C(C(=O)Nc1ccc(C)cc1)=C(C)N2 (stereo not drawn),"inconclusive [falling, full curve, poor fit]"
6,O=C(Cn1c2c(sc1=O)C1c3ccccc3OCC1CS2)Nc1ccc(Cl)cc1 (stereo not drawn),"inconclusive [falling, partial curve, poor fit]"
7,CCOC(=O)c1c(NC(=O)COc2ccc(OC)cc2)sc(C(=O)N(CC)CC)c1C,"inconclusive [falling, full curve, poor fit]"
8,N#C/C(=C\c1ccccc1)c1nc(-c2cc3c(ccc4ccccc43)oc2=O)cs1,active: 0.282 µM [quencher]
9,CCN1C(=O)N/C(=C/c2ccc(C)o2)C1=O,inactive
10,COc1cc(OC)cc(C(=O)NC(=S)NNC(=O)Cc2cccs2)c1,active: 0.316 µM [quencher]
11,Cc1nc(NC(=O)c2ccco2)sc1-c1csc(Nc2ccc(Cl)cc2Cl)n1,"inconclusive [quencher, partial curve]"
12,CCOC(=O)c1ccc(-n2c(=S)sc3c(=O)[nH]c(C)nc32)cc1,inactive
13,Nc1ncc(S(=O)(=O)N2CCN(c3ccccc3)CC2)cn1,active: 0.0056 µM [quencher]
14,COC(=O)CC1Oc2ccc(Cl)cc2-n2cc(-c3ccc(C)cc3)nc21 (stereo not drawn),active: 22.4 µM [quencher]
15,C[C@H](Cc1nc2c(cnn2-c2ccccc2Cl)c(=O)[nH]1)C(F)(F)F,"inconclusive [quencher, partial curve]"
16,Cc1ccc(/C(N)=N/OC(=O)CCc2ccccc2)cc1,inactive
17,Cc1cc(C)cc(-n2c(SCC(=O)Nc3ccccc3F)nc3c(oc4ccccc43)c2=O)c1,"inconclusive [falling, full curve, poor fit]"
18,CSc1ccc(CCNC(=O)CN2C(=O)COc3ccc(S(=O)(=O)N4CCCC4)cc32)cc1,"inconclusive [falling, full curve, poor fit]"
19,CN1CCc2nc(SCC(=O)Nc3cccc(F)c3)c(C#N)c(-c3cccs3)c2C1,inactive
20,CN(C)CCN1C(=O)C(O)=C(C(=O)c2cc3ccccc3o2)C1c1ccc(N(C)C)cc1 (stereo not drawn),inactive
21,CCOc1ccc2c(=O)c(-c3ccc4c(c3)OCCCO4)c(C)oc2c1,"inconclusive [quencher, full curve]"
